Structures can show the parent of a compound that is named as a salt. At least one read-out could not be matched to a standard name with certainty.
Columns and labels:
[1] = Electrokinetic cross-membrane isolation (ECMI) of basic drugs; recovery in acceptor solution by capillary electrophoresis; format: physicochemical; settings: for Recovery (%) DEHP-content % (w/w) 5%: 5% DEHP in NPOE; for Recovery (%) DEHP-content % (w/w) 5% / Recovery (%) DEHP-content % (w/w) 10% / Recovery (%) DEHP-content % (w/w) 25% / Recovery (%) DEHP-content % (w/w) 50% / Recovery (%) DEHP-content % (w/w) 0%: 7 mm vial; for Recovery (%) DEHP-content % (w/w) 10%: 10% DEHP in NPOE; for Recovery (%) DEHP-content % (w/w) 25%: 25% DEHP in NPOE; for Recovery (%) DEHP-content % (w/w) 50%: 50% DEHP in NPOE; for Recovery (%) 10% DEHP + 10% TEHP / Recovery (%) 25% DEHP + 25% TEHP: in NPOE; for Recovery (%) DEHP-content % (w/w) 0%: 0% DEHP in NPOE; for Recovery (%) 0% TEHP: 0% TEHP in NPOE; for Recovery (%) 0% DEHP + 0% TEHP: NPOE organic phase; for Recovery (%) 5% TEHP: 5% TEHP in NPOE; for Recovery (%) 10% TEHP: 10% TEHP in NPOE
[2] = ECMI extraction of acidic drugs; format: physicochemical; settings: sample pH 12.0 NaOH; n-octanol; acceptor 10 mM NaOH; 15 V; 5 min
[3] = sample pH 2.0 HCl, acceptor 10 mM HCl, 300 V

SMILES: CC(C)NCC(O)COc1ccc(CC(N)=O)cc1 (centres unmarked) [Atenolol, atenolol]
- Recovery (%) DEHP-content % (w/w) 5% [1, 3]: 9%
- Recovery (%) DEHP-content % (w/w) 10% [1, 3]: 18%
- Recovery (%) DEHP-content % (w/w) 25% [1, 3]: 38%
- Recovery (%) DEHP-content % (w/w) 50% [1, 3]: 37%
- Recovery (%) 10% DEHP + 10% TEHP [1, 3]: 21%
- Recovery (%) 25% DEHP + 25% TEHP [1, 3]: 26%

SMILES: CN1CCC[C@@H]1CCO[C@](C)(c1ccccc1)c1ccc(Cl)cc1 [Clemastine, clemastine]
- Recovery (%) DEHP-content % (w/w) 0% [1, 3]: 73%
- Recovery (%) 0% TEHP [1, 3]: 73%
- Recovery (%) 0% DEHP + 0% TEHP [1, 3]: 73%
- Recovery (%) 10% DEHP + 10% TEHP [1, 3]: 43%
- Recovery (%) 25% DEHP + 25% TEHP [1, 3]: 23%

SMILES: CN(C)CCCN1c2ccccc2CCc2ccc(Cl)cc21 [Clomipramine, clomipramine]
- Recovery (%) DEHP-content % (w/w) 0% [1, 3]: 67%
- Recovery (%) 0% TEHP [1, 3]: 67%
- Recovery (%) 5% TEHP [1, 3]: 59%
- Recovery (%) 10% TEHP [1, 3]: 54%
- Recovery (%) 0% DEHP + 0% TEHP [1, 3]: 67%
- Recovery (%) 25% DEHP + 25% TEHP [1, 3]: 1%

SMILES: OCCN1CCN(CCCN2c3ccccc3Sc3ccc(C(F)(F)F)cc32)CC1 [Fluphenazine, fluphenazine]
- Recovery (%) DEHP-content % (w/w) 0% [1, 3]: 24%
- Recovery (%) 0% TEHP [1, 3]: 24%
- Recovery (%) DEHP-content % (w/w) 5% [1, 3]: 10%
- Recovery (%) 5% TEHP [1, 3]: 31%
- Recovery (%) 10% TEHP [1, 3]: 33%
- Recovery (%) 0% DEHP + 0% TEHP [1, 3]: 24%
- Recovery (%) 25% DEHP + 25% TEHP [1, 3]: 41%

SMILES: O=C(CCCN1CCC(O)(c2ccc(Cl)cc2)CC1)c1ccc(F)cc1 [Haloperidol, haloperidol]
- Recovery (%) DEHP-content % (w/w) 0% [1, 3]: 53%
- Recovery (%) 0% TEHP [1, 3]: 53%
- Recovery (%) 1-Isopropyl Nitrobenzene ([1]; 1 V, organic phase 1-isopropyl nitrobenzene, sample pH 2.0 HCl, acceptor 10 mM HCl): 6%
- Recovery (%) 2-Nitrophenyl octyl ether ([1]; 1 V, organic phase NPOE, sample pH 2.0 HCl, acceptor 10 mM HCl): 1%
- Recovery (%) Nitrobenzene ([1]; 1 V, organic phase nitrobenzene, sample pH 2.0 HCl, acceptor 10 mM HCl): 40%
- Recovery (%) 5% TEHP [1, 3]: 83%
- Recovery (%) 10% TEHP [1, 3]: 79%
- Recovery as a function of applied electrical potential difference ([1]; FIG. 5, 10 V to 300 V, NPOE, 5 min): relatively high recoveries were obtained with only 10 V
- Recovery (%) 0% DEHP + 0% TEHP [1, 3]: 53%
- Recovery ([1]; acceptor solution 1 mM HCl, NPOE membrane): 23%
- Recovery ([1]; acceptor solution 10 mM HCOOH, NPOE membrane): 52%
- Recovery ([1]; acceptor solution 10 mM HCl, NPOE membrane): 72%
- Recovery ([1]; acceptor solution 10 mM phosphate pH 6.0, NPOE membrane): 9%
- Recovery ([1]; acceptor solution 100 mM HCl, NPOE membrane): 72%
- Recovery (%) 10% DEHP + 10% TEHP [1, 3]: 5%
- Recovery (%) 25% DEHP + 25% TEHP [1, 3]: 4%
- Recovery ([1]; liquid membrane 1-octanol, 300 V, 5 min, 5.2 mm vial): 3%
- Recovery ([1]; liquid membrane 2-nitrophenyl octyl ether + 5% di(2-ethylhexyl) phosphate, 300 V, 5 min, 5.2 mm vial): 3%
- Recovery ([1]; liquid membrane 2-nitrophenyl octyl ether, sample 10 mM HCl, acceptor 10 mM HCl, 300 V, 5 min, 1200 rpm, 5.2 mm vial): 72%
- Recovery ([1]; liquid membrane peppermint oil, 300 V, 5 min, 5.2 mm vial): 78%
- Recovery (%) ([1]; optimal ECMI: NPOE, sample and acceptor 10 mM HCl, 300 V, 5 min): 72%
- Recovery ([1]; sample solution 1 mM HCl, NPOE membrane): 63%
- Recovery ([1]; sample solution 10 mM HCOOH, NPOE membrane): 69%
- Recovery ([1]; sample solution 10 mM HCl, NPOE membrane): 72%
- Recovery ([1]; sample solution 10 mM phosphate pH 6.0, NPOE membrane): 58%
- Recovery ([1]; sample solution 10 mM phosphate pH 7.0, NPOE membrane): 58%
- Recovery ([1]; sample solution 10 mM phosphate pH 8.0, NPOE membrane): 60%
- Recovery ([1]; sample solution 100 mM HCl, NPOE membrane): 65%

SMILES: OCCOCCN1CCN(C(c2ccccc2)c2ccc(Cl)cc2)CC1 (centres unmarked) [Hydroxyzine, hydroxyzine]
- Recovery (%) DEHP-content % (w/w) 0% [1, 3]: 69%
- Recovery (%) 0% TEHP [1, 3]: 69%
- Recovery (%) 5% TEHP [1, 3]: 70%
- Recovery (%) DEHP-content % (w/w) 10% [1, 3]: 3%
- Recovery (%) 10% TEHP [1, 3]: 61%
- Recovery (%) 0% DEHP + 0% TEHP [1, 3]: 69%
- Recovery (%) 25% DEHP + 25% TEHP [1, 3]: 14%

SMILES: CC(C)Cc1ccc(C(C)C(=O)O)cc1 (centres unmarked) [Ibuprofen]
- Recovery (%) [2]: 49%

SMILES: COc1ccc(CN(CCN(C)C)c2ccccn2)cc1 [Mepyramine, mepyramine]
- Recovery (%) DEHP-content % (w/w) 0% [1, 3]: 64%
- Recovery (%) 0% TEHP [1, 3]: 64%
- Recovery (%) DEHP-content % (w/w) 5% [1, 3]: 53%
- Recovery (%) 5% TEHP [1, 3]: 54%
- Recovery (%) DEHP-content % (w/w) 10% [1, 3]: 20%
- Recovery (%) 10% TEHP [1, 3]: 49%
- Recovery (%) DEHP-content % (w/w) 25% [1, 3]: 9%
- Recovery (%) 0% DEHP + 0% TEHP [1, 3]: 64%
- Recovery (%) 10% DEHP + 10% TEHP [1, 3]: 55%
- Recovery (%) 25% DEHP + 25% TEHP [1, 3]: 53%

SMILES: C[C@H](N)[C@H](O)c1cccc(O)c1 [Metaraminol, metaraminol hydrochloride]
- Recovery (%) DEHP-content % (w/w) 25% [1, 3]: 6%
- Recovery (%) DEHP-content % (w/w) 50% [1, 3]: 7%
- Recovery (%) 10% DEHP + 10% TEHP [1, 3]: 6%
- Recovery (%) 25% DEHP + 25% TEHP [1, 3]: 14%

SMILES: CC(=O)Nc1ccc(OCC(O)CNC(C)C)cc1 (centres unmarked) [Practolol, practolol]
- Recovery (%) DEHP-content % (w/w) 5% [1, 3]: 3%
- Recovery (%) DEHP-content % (w/w) 10% [1, 3]: 9%
- Recovery (%) DEHP-content % (w/w) 25% [1, 3]: 27%
- Recovery (%) DEHP-content % (w/w) 50% [1, 3]: 30%
- Recovery (%) 10% DEHP + 10% TEHP [1, 3]: 10%
- Recovery (%) 25% DEHP + 25% TEHP [1, 3]: 16%

SMILES: CC(CN1c2ccccc2Sc2ccccc21)N(C)C (centres unmarked) [Promethazine, promethazine]
- Recovery (%) DEHP-content % (w/w) 0% [1, 3]: 59%
- Recovery (%) 0% TEHP [1, 3]: 59%
- Recovery (%) 5% TEHP [1, 3]: 58%
- Recovery (%) 10% TEHP [1, 3]: 53%
- Recovery (%) 0% DEHP + 0% TEHP [1, 3]: 59%
- Recovery (%) 25% DEHP + 25% TEHP [1, 3]: 4%

SMILES: CC(C)NCC(O)c1ccc(NS(C)(=O)=O)cc1 (centres unmarked) [Sotalol, sotalol]
- Recovery (%) DEHP-content % (w/w) 5% [1, 3]: 7%
- Recovery (%) DEHP-content % (w/w) 10% [1, 3]: 16%
- Recovery (%) DEHP-content % (w/w) 25% [1, 3]: 29%
- Recovery (%) DEHP-content % (w/w) 50% [1, 3]: 23%
- Recovery (%) 10% DEHP + 10% TEHP [1, 3]: 26%
- Recovery (%) 25% DEHP + 25% TEHP [1, 3]: 27%

Reference: patent US8317991B2, “Process for electrokinetic migration through liquid membranes” (priority 2005, dated 2012)
